From PMC5892938 come the findings set out here.

The other results are listed elsewhere or left out. At the low end of the ranking the order means little.

For the test, the target named is GST-SBP-SLBP (stem-loop binding protein) (UniProt Q14493). The experiment in a line: targeted RNA Bind-n-Seq.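 Also: DESeq read counts versus GST-SBP nonspecific binding control pulldown.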 The conditions noted are these: RBNS binding buffer: 25 mM Tris pH 7.5, 150 mM KCl, 3 mM MgCl2, 0.1% Tween, 0.5 mg/mL BSA, 1 mM DTT; 27 nM protein, 750 pM RNA pool; temperature not stated; high values mean tight binding.
With “GGUCACGUCUCAAUCAACUCAAUCUCAGGAGUUUACUCCUGUUUAUUCAACAGCUCGCAGUCAAG”, the binding signal (log2 fold change) was found to be 0.106.
As to “GGUCACGUCUCAAUCAACUCUAUUUCCAGGGAAAGCCCUGGUUAAUUCAACAGCUCGCAGUCAAG”, the binding signal (log2 fold change) was -0.219.
In the case of “GGUCACGUCUCAAUCAACUCUUCCUCAGGAGUUUACUCCUGUAAUCUCAACAGCUCGCAGUCAAG” it was -0.0707; in that of “GGUCACGUCUCAAUCAACUCAAUCCCCAGGGAAACCCCUGGUAUAUUCAACAGCUCGCAGUCAAG”, 0.0769.
In the case of “GGUCACGUCUCAAUCAACUCCUACGAGGGGGGGAAAACCCCUUUACCCUCAUCAUCAACAGCUCGCAGUCAAG” it was 0.348; in that of “GGUCACGUCUCAAUCAACUCUUCUUCCAGGGAAACCCCUGGUAAAUUCAACAGCUCGCAGUCAAG”, -0.33.
The figure for “GGUCACGUCUCAAUCAACUCUAACGAGGGGGGGAAAACCCCUUUACCCUCAAUUUCAACAGCUCGCAGUCAAG” is -0.658; for “GGUCACGUCUCAAUCAACUCAUGUCCAGGAGUUUCCUCCUGCAAUUUCAACAGCUCGCAGUCAAG” it is -0.0963; for “GGUCACGUCUCAAUCAACUCUUCUUCCAGGGAAAUCCCUGGCAAACUCAACAGCUCGCAGUCAAG” it is 0.309.
With “GGUCACGUCUCAAUCAACUCAUCCCCCAGGGAAAUCCCUGGCAUACUCAACAGCUCGCAGUCAAG”, the binding signal (log2 fold change) came to 0.0425.
Consider “GGUCACGUCUCAAUCAACUCAAUCCCCAGGGAAACCCCUGGCAUUUUCAACAGCUCGCAGUCAAG”, for which the binding signal (log2 fold change) was determined as 0.16.
Consider “GGUCACGUCUCAAUCAACUCAUCGUCCAGGGAAAUCCCUGGCUAAUUCAACAGCUCGCAGUCAAG”, for which the binding signal (log2 fold change) is -0.0702.
In the case of “GGUCACGUCUCAAUCAACUCAUCGUCCAGGGAAAGCCCUGGCAAAUUCAACAGCUCGCAGUCAAG” it was 0.186; in that of “GGUCACGUCUCAAUCAACUCAUCUCCCAGGGAAACCCCUGGUUUAUUCAACAGCUCGCAGUCAAG”, -0.00399.
For “GGUCACGUCUCAAUCAACUCAACUUCAGGAGUUUCCUCCUGUUUUCUCAACAGCUCGCAGUCAAG”, the binding signal (log2 fold change) was -0.167.
The figure for “GGUCACGUCUCAAUCAACUCAGUCUCCAGGGAAACCCCUGGCAUUUUCAACAGCUCGCAGUCAAG” is -0.12.
The figure for “GGUCACGUCUCAAUCAACUCAUUAGAGGGGGGGAAAACCCCUUUACCCUCAACAUCAACAGCUCGCAGUCAAG” is 0.299; for “GGUCACGUCUCAAUCAACUCAAUUCCCAGGGAAAACCCUGGUAUUUUCAACAGCUCGCAGUCAAG” it is -0.126; for “GGUCACGUCUCAAUCAACUCCUUAGAGGGGGGGAAAACCCCUUUACCCUCCGUAUCAACAGCUCGCAGUCAAG” it is 0.226.
For “GGUCACGUCUCAAUCAACUCAACUUCAGGAGUUUACUCCUGUAAUCUCAACAGCUCGCAGUCAAG”, the binding signal (log2 fold change) was -0.18.
Take “GGUCACGUCUCAAUCAACUCUCAAGAGGGGGGGAAAACCCCUUUACCCUCAUCCUCAACAGCUCGCAGUCAAG”: the binding signal (log2 fold change) was determined as 0.268.
As to “GGUCACGUCUCAAUCAACUCUAAAGAGGGGGGGAAAACCCCUUUACCCUCAUCAUCAACAGCUCGCAGUCAAG”, the binding signal (log2 fold change) amounted to 0.394.
On to “GGUCACGUCUCAAUCAACUCUACUCCAGGAGUUUACUCCUGUUUACUCAACAGCUCGCAGUCAAG”, for which the binding signal (log2 fold change) stood at 0.0389.
In the case of “GGUCACGUCUCAAUCAACUCAAGUCCAGGAGUUUCCUCCUGCAAUUUCAACAGCUCGCAGUCAAG” it was -0.0413.
As for “GGUCACGUCUCAAUCAACUCUACUCCCAGGGAAAACCCUGGUUAACUCAACAGCUCGCAGUCAAG”, the binding signal (log2 fold change) was -0.162.
In the case of “GGUCACGUCUCAAUCAACUCUUCCCCCAGGGAAAACCCUGGCUUAUUCAACAGCUCGCAGUCAAG” it was -0.0147; in that of “GGUCACGUCUCAAUCAACUCAUCGUCCAGGGAAAUCCCUGGUAAAUUCAACAGCUCGCAGUCAAG”, 0.173; in that of “GGUCACGUCUCAAUCAACUCUUUCCCCAGGGAAAGCCCUGGUUUUCUCAACAGCUCGCAGUCAAG”, -0.0228.
The figure for “GGUCACGUCUCAAUCAACUCCCCAGAGGGGGGGAAAACCCCUUUACCCUCACUCUCAACAGCUCGCAGUCAAG” is 0.142.
The figure for “GGUCACGUCUCAAUCAACUCAGUCUCAGGAGUUUGCUCCUGCUAUUUCAACAGCUCGCAGUCAAG” is 0.092; for “GGUCACGUCUCAAUCAACUCAUCGUCAGGAGUUUCCUCCUGCAUUCUCAACAGCUCGCAGUCAAG” it is 0.149.
In the case of “GGUCACGUCUCAAUCAACUCAUUCCCAGGAGUUUACUCCUGCUAACUCAACAGCUCGCAGUCAAG”, the binding signal (log2 fold change) was 0.364.
In the case of “GGUCACGUCUCAAUCAACUCAACUCCAGGAGUUUACUCCUGCAAUUUCAACAGCUCGCAGUCAAG” it was 0.14; in that of “GGUCACGUCUCAAUCAACUCAAUUUCAGGAGUUUUCUCCUGUUUUUUCAACAGCUCGCAGUCAAG”, -0.0678.
In the case of “GGUCACGUCUCAAUCAACUCAUCGUCCAGGGAAAGCCCUGGUAAAUUCAACAGCUCGCAGUCAAG”, the binding signal (log2 fold change) is -0.243.
“GGUCACGUCUCAAUCAACUCAUUUCCAGGAGUUUCCUCCUGCUUACUCAACAGCUCGCAGUCAAG”: the binding signal (log2 fold change) worked out at 0.00712.
The figure for “GGUCACGUCUCAAUCAACUCAUUUUCCAGGGAAAUCCCUGGCUUAGUCAACAGCUCGCAGUCAAG” is -0.0752.
